Data as given in patent US20260274910A1, “SINGLE FUSION PROTEIN AND PHARMACEUTICAL COMPOSITION” (MEDI&GENE INC., priority 2023, published 2026).

B1: SEQ ID NO: 2: Recombinant protein: Shortened substance (1-60)-repeat-type linker-Fc fusion (mutant modified) (protein)
chain: GSDQSENVDRGAGSIREAGGAFGKREQAEEERYFRAQSREQLAALKKHHEEEIVHHKKEIGGGGSGGGGSGGGGS[human IgG1 Fc with changes omitted here]
B2: SEQ ID NO: 14: Recombinant protein: Shortened substance (1-60)-Shortened linker-Fc fusion (protein)
chain: GSDQSENVDRGAGSIREAGGAFGKREQAEEERYFRAQSREQLAALKKHHEEEIVHHKKEIGGGGS[human IgG1 Fc with C220Q (EU numbers) omitted here]

Assays:
[1] = tested on: db/db mouse model (C57BLKS/J-db/db); assay: Leptin receptor-deficient diabetes model study II; format: in vivo; conditions: 5 mg/kg subcutaneous 6 times a week for 11 weeks; versus control
From the text: In order to confirm efficacy of the fusion proteins in a diabetic pathological condition in which impaired glucose tolerance by genetically inducing mutation to a leptin receptor gene, a 9-week-old db/db mouse model (C57BLKS/J-db/db) was used. The mice after a one-week acclimation period were divided into a control (n=9) and an experimental group (fusion protein SEQ ID NO: 2; n=7). The mice was provided with a normal diet, and for 11 weeks, PBS to the control, and the fusion protein to the experimental group were subcutaneously injected at a dose of 5 mg/kg 6 times a week, and the efficacy thereof was observed.

[2] = tested on: sciatic nerve transection mouse model; assay: Sciatic nerve transection muscle atrophy model; format: in vivo, C57BL/6 male mice; conditions: versus control
Experimental: The effects of the test substances on muscle diseases accompanied by muscle loss were evaluated using a sciatic nerve transection mouse model.
In the sciatic nerve transection mouse model, muscle atrophy was induced as follows. The thigh muscles of C57BL/6 male mice were transversely incised to expose sciatic nerves, and then the sciatic nerves were transected to weaken the nerves in the muscle tissue and induce muscle atrophy. The incised site was sutured, and a recovery period of one week was provided after the surgery.
To each mouse after the recovery period, the test substance (Control-PBS; and fusion protein) assigned to each group was subcutaneously injected at a concentration of 5.0 mg/kg 6 times a week for 9 weeks (Control: n=8, No. 13: n=9, No. 14: n=9, No. 15: n=8). The effects of improving muscle loss were measured with an X-ray body composition analyzer (DXA assay) in the fourth week of test substance administration, and the effects of improving muscle function was compared by measuring grip strength.

Row | Molecule | Blood glucose level [1] | Grip strength ([2]; 5.0 mg/kg subcutaneous 6 times a week for 9 weeks) | Muscle mass (DXA assay) ([2]; 5.0 mg/kg subcutaneous 6 times a week, fourth week)
1 | B1 | significantly reduced | – | –
2 | B2 | – | higher performance | significantly increased
